28 molecules from the antibiotic and cytotoxicity screens of Wong et al. (2023) can be followed below.

Some of the results follow.

In one assay the test system is HSkMC. As to the kind of experiment: cytotoxicity call (relative viability < 0.9). The following applies: 10 µM.
In another assay the test system is HepG2. As to the kind of experiment: cytotoxicity call (relative viability < 0.9). The following applies: 10 µM.
For another assay, the system named is S. aureus RN4220. Put plainly: growth inhibition call (relative growth <= 0.2). The following applies: 50 µM.

On to `CCNC(=O)C[C@@H]1CC[C@H]2[C@@H](COc3ccc(NS(=O)(=O)c4ccccc4C)cc3C(=O)N2C)O1`, for which the cytotoxicity call in the assay with HSkMC and in the assay with HepG2 was “inactive” in each case. Also, in the assay with S. aureus RN4220, the growth inhibition call was “inactive”.

`C[C@H](CO)N1C[C@H](C)[C@H](CN(C)C(=O)Nc2cccc3ccccc23)OCCCC[C@H](C)Oc2ccc(NC(=O)Nc3ccccc3)cc2C1=O`: the cytotoxicity call in the assay with HSkMC and with HepG2 was “inactive” in each case. Besides, the growth inhibition call in the assay on S. aureus RN4220 was “inactive”.

With `COc1ccccc1CNC(=O)C[C@@H]1C[C@@H]2c3cc(NC(=O)C4CCOCC4)ccc3O[C@@H]2[C@H](CO)O1`, the cytotoxicity call in the assay on HSkMC and in the assay with HepG2 was “inactive” each time. Further, the growth inhibition call with S. aureus RN4220 is “inactive”.

On to `C[C@H](CO)N1C[C@H](C)[C@@H](CN(C)C(=O)Cc2cccnc2)Oc2cc(C#Cc3ccccc3F)ccc2S1(=O)=O`, for which the cytotoxicity call with HSkMC and with HepG2 was “inactive” in each case. In addition, the growth inhibition call in the assay with S. aureus RN4220 is “inactive”.

As for `C[C@H]1CN([C@@H](C)CO)C(=O)Cc2cc(NC(=O)C3CCCCC3)ccc2O[C@H]1CN(C)Cc1ccc(Cl)c(Cl)c1`, the cytotoxicity call in the assay with HSkMC and in the assay with HepG2 was “inactive” in each case. Besides, in the assay with S. aureus RN4220, the growth inhibition call is “inactive”.

Take `CN(C)CC#Cc1ccc([C@H]2[C@H]3CN(C(=O)CN(C)C)CCCCN3[C@H]2CO)cc1`: the cytotoxicity call with HSkMC and with HepG2 was “inactive” each time. In addition, the growth inhibition call in the assay on S. aureus RN4220 is “inactive”.

In the case of `C[C@@H]1CN([C@H](C)CO)C(=O)c2cccc(NC(=O)Nc3ccc(F)cc3)c2O[C@@H]1CN(C)Cc1ccc(C(F)(F)F)cc1`, the cytotoxicity call in the assay with HSkMC and with HepG2 was “inactive” in each case. In addition, the growth inhibition call in the assay with S. aureus RN4220 was “inactive”.

For `O=C1[C@H]2[C@H](O)CS[C@H]2C(=O)N1c1ccccc1`, the cytotoxicity call in the assay with HSkMC and with HepG2 was “inactive” each time. The growth inhibition call in the assay on S. aureus RN4220 is “inactive”.

For `C[C@@H]1CN([C@@H](C)CO)C(=O)c2cc(NS(=O)(=O)c3ccc(Cl)cc3)ccc2O[C@@H](C)CCCCO[C@H]1CN(C)S(=O)(=O)c1cccs1`, the cytotoxicity call in the assay with HSkMC and with HepG2 was “inactive” in each case. Also, the growth inhibition call in the assay on S. aureus RN4220 is “inactive”.

`C[C@@H]1CN([C@@H](C)CO)S(=O)(=O)c2ccc(C#CCN(C)C)cc2O[C@H]1CN(C)C(=O)CN(C)C`: the cytotoxicity call with HSkMC and with HepG2 was “inactive” each time. In addition, the growth inhibition call in the assay on S. aureus RN4220 was “inactive”.

Take `COC(=O)c1cc(=O)nc2n1[C@H]1O[C@H](CO)[C@H](O)[C@H]1O2`: the cytotoxicity call in the assay on HSkMC and in the assay with HepG2 was “inactive” each time. Also, the growth inhibition call in the assay on S. aureus RN4220 was “inactive”.

Regarding `Cn1cnc(S(=O)(=O)N2C[C@H](O)COC[C@H]3O[C@@H](CC(=O)NC4CCC4)CC[C@@H]32)c1`, the cytotoxicity call with HSkMC and in the assay on HepG2 was “inactive” each time. For the same molecule, in the assay with S. aureus RN4220, the growth inhibition call is “inactive”.

On to `C[C@H]1CN([C@@H](C)CO)C(=O)Cc2cc(NC(=O)CCN3CCOCC3)ccc2O[C@@H]1CN(C)S(C)(=O)=O`, for which the cytotoxicity call with HSkMC and with HepG2 was “inactive” throughout. Moreover, in the assay on S. aureus RN4220, the growth inhibition call is “inactive”.

In the case of `C[C@@H]1CN([C@H](C)CO)C(=O)c2cc(NC(=O)C3CC3)ccc2O[C@H]1CN(C)S(=O)(=O)c1ccc(F)cc1`, the cytotoxicity call in the assay with HSkMC and in the assay on HepG2 was “inactive” throughout. The growth inhibition call in the assay with S. aureus RN4220 was “inactive”.

In the case of `C[C@@H]1CCCCO[C@@H](CN(C)C(=O)Cc2ccccc2)[C@H](C)CN([C@H](C)CO)C(=O)c2cc(NC(=O)NC3CCCCC3)ccc2O1`, the cytotoxicity call in the assay on HSkMC is “inactive”. The cytotoxicity call with HepG2 was “active”. Also, in the assay on S. aureus RN4220, the growth inhibition call is “inactive”.

With `COCCNC(=O)Cn1cnc2c1c(=O)n(C)c(=O)n2C`, the cytotoxicity call with HSkMC and with HepG2 was “inactive” throughout. Moreover, the growth inhibition call in the assay on S. aureus RN4220 is “inactive”.

`CC(C)N1CCOC[C@@]2(C1)CN(S(C)(=O)=O)CCO2`: the cytotoxicity call in the assay with HSkMC and with HepG2 was “inactive” in each case. Besides, the growth inhibition call in the assay with S. aureus RN4220 was “inactive”.

Turning to `Cc1noc(C)c1S(=O)(=O)Nc1ccc2c(c1)CC(=O)N([C@@H](C)CO)C[C@H](C)[C@@H](CN(C)S(=O)(=O)c1cccs1)O2`, the cytotoxicity call with HSkMC and with HepG2 was “inactive” each time. For the same molecule, the growth inhibition call in the assay with S. aureus RN4220 was “inactive”.

With `C[C@H]1CN([C@@H](C)CO)C(=O)c2cc(NC(=O)CCN3CCOCC3)ccc2O[C@H]1CN(C)C(=O)Nc1ccc(F)cc1`, the cytotoxicity call in the assay with HSkMC and in the assay on HepG2 was “inactive” in each case. Further, the growth inhibition call in the assay on S. aureus RN4220 is “inactive”.

As to `C[C@H](CO)N1C[C@H](C)[C@@H](CN(C)C(=O)Nc2cccc3ccccc23)Oc2ccc(NC(=O)Cn3cnnn3)cc2CC1=O`, the cytotoxicity call with HSkMC and in the assay with HepG2 was “inactive” throughout. The growth inhibition call in the assay on S. aureus RN4220 is “inactive”.

Turning to `COc1ccc(S(=O)(=O)N(C)C[C@@H]2Oc3cc(C#CC4CCCC4)ccc3S(=O)(=O)N([C@H](C)CO)C[C@@H]2C)cc1`, the cytotoxicity call in the assay on HSkMC and in the assay with HepG2 was “inactive” throughout. Besides, in the assay with S. aureus RN4220, the growth inhibition call is “inactive”.

With `COCCOC(=O)N1C(=O)[C@@]2(c3cc(C#CCNC(N)=O)ccc31)[C@H](C(=O)N1CCCCCCC1)[C@H]1C(=O)O[C@H](c3ccccc3)[C@H](c3ccccc3)N1[C@@H]2c1ccc(O)cc1`, the cytotoxicity call in the assay with HSkMC and in the assay on HepG2 was “inactive” in each case. In addition, in the assay with S. aureus RN4220, the growth inhibition call was “inactive”.

As for `O=C(CN1CCNCC1)N1CCCC1`, the cytotoxicity call with HSkMC and with HepG2 was “inactive” throughout. Moreover, the growth inhibition call in the assay with S. aureus RN4220 was “inactive”.

Consider `C[C@@H]1CN([C@H](C)CO)C(=O)c2cc(-c3cccc(C(=O)N(C)C)c3)cnc2O[C@H]1CN(C)S(=O)(=O)c1cccc(F)c1`, for which the cytotoxicity call in the assay on HSkMC and with HepG2 was “inactive” each time. In the assay with S. aureus RN4220, the growth inhibition call is “inactive”.

As to `C[C@@H]1CN([C@H](C)CO)C(=O)c2cccc(NC(=O)Nc3ccc4c(c3)OCO4)c2O[C@H]1CN(C)C(=O)Nc1cccc2ccccc12`, the cytotoxicity call in the assay on HSkMC and in the assay on HepG2 was “inactive” throughout. Also, in the assay on S. aureus RN4220, the growth inhibition call is “inactive”.

Consider `C[C@@H]1CN([C@@H](C)CO)C(=O)c2cccc(NC(=O)C3CCOCC3)c2O[C@@H]1CN(C)S(=O)(=O)c1ccc(Cl)cc1`, for which the cytotoxicity call with HSkMC and with HepG2 was “inactive” in each case. For the same molecule, in the assay on S. aureus RN4220, the growth inhibition call is “inactive”.

In the case of `C[C@@H]1CN([C@@H](C)CO)C(=O)Cc2cc(NC(=O)CCCCCC(=O)Nc3ccccc3N)ccc2O[C@@H]1CN(C)Cc1ccc(C(F)(F)F)cc1`, the cytotoxicity call in the assay on HSkMC (human skeletal muscle cells) is “active”. Besides, the cytotoxicity call in the assay on HepG2 was “inactive”. Further, the growth inhibition call in the assay on S. aureus RN4220 is “inactive”.

Consider `COc1ccc(NC(=O)N(C)C[C@@H]2OCCCC[C@@H](C)Oc3ccc(NC(=O)NC(C)C)cc3C(=O)N([C@H](C)CO)C[C@H]2C)cc1`, for which the cytotoxicity call in the assay with HSkMC and in the assay with HepG2 was “inactive” throughout. In addition, the growth inhibition call in the assay on S. aureus RN4220 was “inactive”.
